The other results are listed elsewhere or left out. At the low end of the ranking the order means little. Measured with an extract: partners may take part in the binding.

The assay concerns the target T1, HNF4alpha8 (COS-7 nuclear extract) (UniProt P41235-5).
T1 sequence: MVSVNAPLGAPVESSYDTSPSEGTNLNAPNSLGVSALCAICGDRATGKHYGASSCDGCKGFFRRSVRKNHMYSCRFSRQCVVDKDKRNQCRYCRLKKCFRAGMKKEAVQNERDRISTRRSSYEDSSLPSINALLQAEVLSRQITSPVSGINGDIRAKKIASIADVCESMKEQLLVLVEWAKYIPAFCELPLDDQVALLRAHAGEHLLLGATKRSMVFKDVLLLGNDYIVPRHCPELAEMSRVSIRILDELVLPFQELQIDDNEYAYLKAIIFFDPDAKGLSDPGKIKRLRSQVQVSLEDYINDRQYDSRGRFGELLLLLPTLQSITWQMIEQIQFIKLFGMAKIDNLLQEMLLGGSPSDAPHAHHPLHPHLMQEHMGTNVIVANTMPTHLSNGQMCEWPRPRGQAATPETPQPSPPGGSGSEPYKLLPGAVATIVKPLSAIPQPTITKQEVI
Description: protein-binding microarray. The note with it: COS-7 nuclear extract on double-stranded Agilent 4x180k PBM; binding buffer, salt, pH and temperature not given; high values mean tight binding; double strand, one strand shown; sequences stand for … in …GCCTAGGGAGATTAGAGTATCGGTCGA
In the case of ATCAGGTTTCTCAAGTGATCGAAGGTCAAC, the binding signal (log2 normalized intensity) stood at 5.2.
To CTTCACACAAACATCACCTACCTGACTCCT belongs -1.29.
To AGCAATCTACTTTTCTTTTGGCATCTGTTG belongs 1.46; to CTGGATGCCCAGGGATTCCTGAAGATCGCA, -1.35; to ATTCGTCCAGGGCCGCCCAAGCGAATATGT, -1.38.
For GGTGAGGGGAGCGTAAAACCACTGGCCCAT the value was -1.32; for GCTGGACGCTGGTCAGCATCCTGCTTGTGA, -1.06.
Consider TTGCATAGGCATTGTCTTGAAAGATAAAGT, for which the binding signal (log2 normalized intensity) was found to be 0.475.
As for GTAATAAGCAGTAGACTAAAACCCATATCT, the binding signal (log2 normalized intensity) is -1.23.
Regarding AGCAGCAGGGTCAGAAGGGAGGTAGTCGCC, the binding signal (log2 normalized intensity) was -1.29.
GGAGGGTCTTGCTTTGATGTTGATGGTTGC: the binding signal (log2 normalized intensity) came out at 1.83.
For the sequence TAAGTTGAAGTGAGTTGTTTGTTTTGAGAT, the binding signal (log2 normalized intensity) was found to be 1.17.
For AGTAGGATAAGTCCTTCCAAAGTCCTTCTA, the binding signal (log2 normalized intensity) turned out to be 3.04.
To GGGGGGAAGCTCTGTCACTTCTGGTTACCA belongs -1.36; to CCCAGTGTCTCTGGGCGCTGGGAAGACAGT, -1.28; to TAAACCACCCAATCCTGCAGCATTCCCTAC, -1.29.
For TGCATTAAAGTCACAAAGGTGGAACTCAAG the value was 0.899.
CACAAAGGGTTATGGGAAGTGGGGTAAGCA: the binding signal (log2 normalized intensity) is -0.624.
To TGGGCTTCAGACATTGCAAATCTCTTCTTC belongs -1.22; to TCTGTCTCATTCCCTGACAGACCCCTCCTA, 4.36.
With CATCGAGGCCATCCCAGTTACTCAGCGAAT, the binding signal (log2 normalized intensity) is -1.35.
To TCTTGTTTCAGAGTAAATACGAACCGTCGT belongs 1.2.
For the sequence GTGTGTGTGTGTGTGTGTGTATGCCATGCT, the binding signal (log2 normalized intensity) worked out at 1.92.
For CGCCACTGCATTCCAGCCTGGGGCAATAGA the value was -1.27; for GGAAATCCGAAATAAACTGAGGGGTGGGGA, -1.35; for GTCCAAGGACTTATCCTTGGGACATTCTCA, -1.1.
On to ATGACACCCATCATGAGTAGGTTTACTAAA, for which the binding signal (log2 normalized intensity) was -0.916.
To TTAGGACAACATGAGTAAACGAGCTATTTA belongs -1.27.
For GGAAGGGATGGGGTGCAAACTCACCTGGAG the value was -1.4; for TGGCCAAAGGGCACAAGAGGAATTGTTCAA, 1.68.
As to CGCTGCCTCCCACCCCCACGGTGCGCTGCC, the binding signal (log2 normalized intensity) is 4.26.
With TTTATTCACTTCTCAAAGGACAGATCAATG, the binding signal (log2 normalized intensity) is 1.26.
On to GAGATGAAAGGGGCCTCAGAGAAAGCCTGT, for which the binding signal (log2 normalized intensity) is -1.48.
For the sequence CAGGCAGATTTGACCTACGGACCATGGATC, the binding signal (log2 normalized intensity) amounted to 4.04.
For TCAGAAACAGGAATTCAAAGGTGCAAAGGT the value was 2.84; for CTTTTTCTTCTGGGGACGCCCACTGCTTTG, -1.13.
To GCAGCACCTTGATGCTGGACTTCAGCCTCC belongs 5.78.
Turning to GACCAGTCTGCCTGACTCCAGAGTCCAAAC, the binding signal (log2 normalized intensity) came out at 4.23.
To GGGCAGCGCGGCGCGCTGGGAAGGCTCGTT belongs -1.3.
On to CTATAAAACAGGAAAAAGGGACAAAACTTC, for which the binding signal (log2 normalized intensity) was -1.34.
For CGTGGTTGATCAAAGGTTGGACTGAGGACC, the binding signal (log2 normalized intensity) came out at 3.73.
With TACACAAAAGAGCTTTGAGTCTGGTGTTTC, the binding signal (log2 normalized intensity) was 0.112.
For AAATCTTAGAGAACACTCCTCCCCTTTTCT, the binding signal (log2 normalized intensity) was 2.49.
To GGGGAAATGACCTTTGTCCAGCTGTGCCGA belongs 7.01; to ACAGCCCTGACATTCTTGAGCTGCTAAACC, -1.22.
To TCTGGCTTGGCCCCCGGACCCAAAGTAAAC belongs 4.18; to GACCCTTATCAGCCTAGACAAGGCACCAAA, -1.42.
For the sequence CTTAAGTTGTACCTGACTAAAACCTGCTGC, the binding signal (log2 normalized intensity) is -1.41.
To ACATTCTGGAATGATACGCCGGCCAATCCG belongs -1.35; to CTCCATCTCCTCCACCAGCTTGCTGCAGAT, -1.41.
To TAACATCTAACAGCTGATGAGGCACCAACA belongs -1.26.
For CTGGTCCTCAGGCCTTTGGACCCAGACTGA the value was 5.32; for TGATGCCTGACTCAAGAAAGGATCTCACCC, -1.27; for CTTTTGGGATCAGCAATGCTCAGCCCACCT, -1.11.
Turning to GTTTACTAAAGGAAGGGAGGTGAGTGCTAG, the binding signal (log2 normalized intensity) was -1.25.
For TCAGCCTTGGGGCCATTCCAGTTTTGGAGA, the binding signal (log2 normalized intensity) was -0.552.
As to CCCTCGACGCGCCGGCGCAGCCGCGCTCCG, the binding signal (log2 normalized intensity) is -1.23.
In the case of GGTTCTTCCACGACTCCCCCGCTCACCCCT, the binding signal (log2 normalized intensity) came to 5.08.
For CCGCGACAAGCGTCGCTGAGTGGAGGCCCA the value was -1.04; for CCTTGGACTCCTGGACTCAAGGAATCCTCC, 3.36; for GAACTGTCGCAGAAAACACAGAGATCTGAT, -1.43.
To GCTTATCACTGGTGATGTGAACCTCGATCC belongs 3.96.
Turning to CTTTAGTCAGAGATTTCTTTACCATACCAG, the binding signal (log2 normalized intensity) was -0.974.
For TCTAAGACCCATCCCTCAGGGTCCATATCC the value was 3.79; for TTATGCTTGCAGGTGTCAGGGGTCAATGTG, 5.14; for AATAACTGCTTTGTGGCATCAGGGTCCACA, 3.07.
For AGTCCAAAGTCTGCAGGGTAGGCAGACAGG the value was 1.66.
To GTGTTCACAGGTGACCTCTGGCCACTGCAG belongs 3.51; to AAACCTTTGACCAATTGACCCTATCCACAT, 3.86.
As to TCAATACTCCACAAGACCACAAGGTGGCGA, the binding signal (log2 normalized intensity) is -1.51.
To AATAAATCAAGATCACTGCCTTGGAGGCAC belongs -1.36; to AGTTTGGTTTAAAGTTCAAGTCATAACTGG, 2.53.
